Measurements from ChEMBL document CHEMBL4888484, “Replenishing the malaria drug discovery pipeline: Screening and hit evaluation of the MMV Hit Generation Library 1 (HGL1) against asexual blood stage Plasmodium falciparum ,using a nano luciferase reporter read-out” (2022).
Out of some 150,000 compounds screened, about 540 (0.36%) showed an effect of 50% or more. The list shows a part of the results.

The compounds below were run on Plasmodium falciparum (assay: Primary screen in NF54 nanoGlo assay, in single point, at 2uM, 72h; a lower Z score goes with more inhibition). Conditions: timepoint 72 hour.
Assay type: functional, Erythrocyte

Compound | % Inhibition | Z score
COc1ccc(-c2nnc(-c3cccnc3NCCC3=CCCCC3)o2)cc1 | -14% | 1.37
Cc1nc(N2CCN(C)CC2)nc(C)c1NC(=O)c1ccccc1 | -3% | 0.45
CCNC/C=C/COc1ccc(C(C)(C)C)cc1 | -5% | 0.52
CCCc1ccc(CN2C[C@H](O)[C@@H](N3CCN(C)CC3)C2)o1 | 14% | -1.79
Cc1nn(-c2cc(N(C)C)ncn2)c(C)c1CCC(=O)N1CCCC1 | -1% | 0.21
Cn1nc(CN(C(=O)c2cccs2)C2CCCC2)c2c1CCC2 | -18% | 3.5
CCN1CC2(CCN(CC(=O)NC(C)C)CC2)C[C@@H](c2ccccc2)C1=O | -24% | 2.1
CCn1nc(CC2CC2)nc1Cn1nc2ccccc2n1 | -2% | 0.36
CCc1nocc1CN(C)C(=O)[C@H]1CCc2cncn2C1 | -5% | 0.9
COc1ccc(N2CCN(C(=O)CNc3ccc4c(c3)OC(F)(F)O4)CC2)cc1 | -22% | 2.24
CCC(=O)N1CCc2cc(CNC(=O)c3ccc(OC)cc3)ccc21 | -9% | 1.69
CCCNC(=O)N1CC[C@@H](CC(=O)O)[C@@H](CC2=NCCc3cc(F)ccc32)C1 | -1% | 0.1
COCCN(Cc1nc(-c2ccccc2C)no1)C1CC1 | -10% | 1.47
COc1ccc2c(c1)CCCN2Cc1c(O)c(C(=O)Oc2ccccc2)cc2ccccc12 | -6% | 0.73
C[C@@]1(C2CC2)COCCN1C(=O)c1cncc(N2CCCC2)n1 | 6% | -0.7
O=C1NCCCc2[nH]c(-c3ccc4c(c3)OCO4)nc21 | 0% | 0.09
CCOc1cc(C(=O)O)c(N)cc1OC | -2% | 0.3
C[C@H](NC(=O)c1ccc2c(c1)OCCO2)c1ccc2[nH]ccc2c1 | -26% | 2.56
CC(=O)NC(c1ccccc1F)C(C)NC1CCOc2ccccc21 (stereo unspecified) | -4% | 0.64
N#Cc1cc(C(=O)Nc2cccc3c2CCO3)ccc1F | 0% | -0.03
Cn1c(-c2cccs2)c(CN(Cc2ccccc2)C(=O)Nc2ccc(Cl)cc2)c2ccccc21 | -16% | 1.98

Compound | % Inhibition | Z score
CNc1ccnc(N[C@H]2CC(C)(C)Cc3nc(N(C)Cc4ccccc4)ncc32)n1 | 7% | -1.42
O=C(N[C@@H]1CN(C(=O)CC2CCCCC2)CC[C@@H]1CO)c1cccnc1 | 6% | -0.78
Cc1nc(-c2c[nH]c(C(=O)Nc3ccc(=O)n(Cc4ccccc4Cl)c3)c2)cs1 | 7% | -1.33
CCOC(=O)c1nnc(-c2ccns2)o1 | -4% | 0.69
CCN1CCCC[C@H]1C(=O)N1CCC(c2nc(C)no2)CC1 | -1% | 0.08
CC[C@H]1CC[C@H](C(=O)N2CCC[C@H](O)CC2)CC1 | -24% | 2.61
Cc1c(CN2CC(N3CCCC[C@@H]3C)C2)cnn1C | -11% | 2.11
O=C1CN(Cc2cccc(C(F)(F)F)c2)S(=O)(=O)c2ccccc2N1Cc1ccccc1 | 19% | -2.24
CCc1n[nH]c(NC(=O)c2nc(C3CC3)ncc2Br)n1 | 1% | -0.26
CC(C)Nc1c(-c2ccc(Cl)cc2)cn(C(C)C)c1-c1ccc(Cl)cc1 | -32% | 3.7
N#C[C@H](C(=O)Nc1ccc(F)c(Cl)c1)C(=O)c1cocn1 | -7% | 1.33
CC(C)n1cc(CNc2ncccn2)cn1 | -3% | 0.31
CN1CCN(C(=O)c2ccccc2N2CCC(NC(=O)c3ccccc3)CC2)CC1 | 9% | -1.65
CN(C)c1ccc(C(=O)NC(c2cnn(C)c2)[C@H]2C[C@@H](O)C2)cc1 (stereo partly specified) | -13% | 1.47
N#Cc1ccc(OCC2(C#N)CC2)c(F)c1 | 1% | -0.14
O=C(O)c1ccc(N(C(=O)c2ccc3c(c2)OCO3)C(=O)c2ccc3c(c2)OCO3)cc1O | 31% | -4.48
CC(C)c1ccc(N2C[C@@H](C(=O)N3CC(c4ccccn4)C3)CC2=O)cc1 | -6% | 1.13
Cn1ncc(N2CCO[C@@H](CCNC(=O)C3(C)CCCCC3)C2)cc1=O | -6% | 1.1
O=C(NC1CCCCC1)[C@@H]1C[C@@H](O)CN1C1CCN(C(=O)C2CCOCC2)CC1 | -4% | 0.68
COCCOc1cc2cc(c1)C(=O)NCCNC(=O)N[C@H]1CCN(C(=O)COc3ccc(C)cc3)C[C@@H]1OCc1cccc(c1)O2 | 4% | -0.55
Cc1[nH]nc(C(N)=O)c1NC(=O)Cc1cccc(Cl)c1 | -11% | 1.72

Compound | % Inhibition | Z score
Cc1nccn1CCN(C)C(=O)N[C@@H](C)c1cnn(C)c1 | -1% | 0.12
COc1ccc(C(=O)N2CCc3nc(N4CCN(c5ccccc5)CC4)nc(N4CCN(C)CC4)c3C2)cc1 | -13% | 1.24
COc1cc(CN2CCC[C@@]3(CCC(=O)N(C)C3)C2)cc(Cl)c1OCC(N)=O | -10% | 1.85
Cc1[nH]c2ccccc2c1[C@H]1C(c2ccccc2)=NN=CN1O | -34% | 4
CC[C@@H](NC(C)=O)C(=O)Nc1nn(-c2ccc(F)cc2)c2cccc(OC(C)C)c12 | 13% | -2.23
COc1c(C(=O)N2CCN(C(=O)[C@@H]3CCCO3)CC2)c(C)nn1C | -1% | 0.11
COc1ncccc1NC(=O)N1CCC[C@H](N2CCCCC2)C1 | -6% | 0.95
CCCn1nnnc1CN1CCCN(C(C)=O)CC1 | 5% | -0.81
Cc1ccc(C(=O)CCN2CC[S+]([O-])CC(C)C2)cc1 (stereo unspecified) | 2% | -0.24
CN(C)S(=O)(=O)NCc1cccnc1-c1ccco1 | -16% | 3.04
COC(=O)c1cc(F)ccc1CN1C(=O)CC(C)(C)C1=O | -16% | 2.22
Cc1ccc(C(=O)N2C(=O)C(c3ccc(F)cc3)=NC2(C)C)cc1C | -14% | 1.4
CN1CC(=O)N(CC(=O)N2CCN(c3cccc(C(F)(F)F)c3)CC2)C1=O | -10% | 1.88
CCc1cc([C@@H]2CCCN2C(=O)NCc2ccccc2)on1 | 18% | -2.63
C[C@@H](CC#N)NC(=O)c1ccc(O)cc1O | 3% | -0.43
FC(F)(F)CN1CC[C@H](NCc2cccc(-c3ccccc3)c2)C1 | -8% | 1.5
CC[C@H](NC(=O)c1cc(-c2ccco2)nc2c(Cl)cccc12)c1cnn(C)c1 | -14% | 2.04
Cc1cccc(C2CCN(C(=O)N[C@H]3CC[C@@H](C#N)C3)C2)c1 (stereo partly specified) | -5% | 0.75
COc1ccc(-c2cc3c(=O)n(C[C@H](O)c4cc(C)c(C)cc4C)ccn3n2)cc1 | -11% | 2.06
O=C(Cc1cccc2ccccc12)N1C2CCC1COC2 | -12% | 1.31
CCc1ccc(CN(CN2C(=O)NC3(CCC(C)CC3)C2=O)C2CC2)cc1 (stereo unspecified) | 3% | -0.6

Compound | % Inhibition | Z score
Cc1[nH]nc(CCC(=O)NCc2ccc3c(c2)nc(C)n3C)c1C | 11% | -2.3
Cc1ccc(C(=O)Nc2ccsc2-c2nnc(C(C)C)o2)cc1C | -14% | 1.41
CC(C(=O)NCc1ccc2c(c1)OCO2)N1CCN(C(C)C(=O)NCc2ccc3c(c2)OCO3)CC1 (stereo unspecified) | -6% | 1.19
O=C(c1ccc2ncsc2c1)N1CCC(n2c(=O)[nH]c3ccc(F)cc3c2=O)CC1 | -3% | 0.36
CC(C)c1ccc(-c2nnn(CCC(=O)Nc3ccc(Cl)cc3F)n2)cc1 | 5% | -0.39
CCN1CCN(C(=O)c2cc3cc(NC(=O)c4ccc(C)cc4)ccc3n2Cc2ccc(C(C)(C)C)cc2)CC1 | -2% | 0.32
CC(C)c1noc([C@H](C)NS(=O)(=O)c2cccc3nsnc23)n1 | -3% | 0.46
CC1CC(OC(=O)c2cc(-c3cccc(Cl)c3)[nH]n2)C(=O)O1 (stereo unspecified) | 1% | -0.08
N#Cc1cccc([C@@H](N)C(F)(F)F)c1 | -2% | 0.23
CC(C)(C)c1nsc(NC2CCN(CCS(C)(=O)=O)CC2)n1 | -6% | 0.61
O=C(Cc1ccon1)Nc1ccccc1Oc1cc(F)cc(F)c1 | -6% | 0.7
CC(C)Oc1cccc2c1c(NC(=O)[C@@H]1CCCN1C)nn2Cc1ccccc1 | -6% | 1.11
Cc1cc(C(=O)N[C@H](c2cncc(Br)c2)C2CC2)on1 | -15% | 1.55
C[C@H]1c2ccccc2CN1C(=O)CC1=CCCCC1 | 2% | -0.21
CCn1cncc1Cn1ccnc1-c1cccc(OC)c1OC | 9% | -1.27
O=C(NCCc1cccnc1)c1ccccc1C(=O)c1ccc(F)cc1 | -3% | 0.45
Cc1ccc2c(c1)CN(C(=O)NC1CN(C3CC3)CC1C)C2 (stereo unspecified) | -3% | 0.53
Cc1ccc(C(=O)N2C[C@@H]3CN(C4CCCC4)C[C@]3(C(=O)O)C2)cc1 | -5% | 0.81
CCN1CC2(CCN(c3ccc(C(=O)O)cn3)CC2)CC1=O | -9% | 0.85
CC1CN(C(=O)COC(=O)c2ccc3nccnc3c2)CC(C)O1 (stereo unspecified) | -6% | 1.05
